Source: PubChem BioAssay AID1159614 (National Center for Advancing Translational Sciences (NCATS), 2016)
In all, about 45,000 compounds went through this assay and about 65 (0.1%) were called active. Calls follow the shape of the dose curve; as a rule, active = well fitted activation curve with a large enough effect; inconclusive = small, poorly fitted or top-dose-only effect; inactive = no such curve, though single readings can be large or run the other way. The list shows a part of the results.

Biological target: Galactocerebrosidase (Homo sapiens) (UniProt P54803)
Assay: A Novel Cell-Based Assay to Identify Small Molecules for B -Galactocerebrosidase; also: 0% is about no effect; nearly all actives have a fitted effect of over 65% in size
Conditions: 145M-Twi-hGALC-G270D cells (Twitcher mouse brain line with human GALC G270D), HMU-beta-Gal fluorescence, 48 h; series mostly up to 57.5 µM; activation: at the top concentration
Summary of the method: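 Mutant human GALC (G270D), stably expressed in a Twitcher mouse brain cell line lacking endogenous GALC, is measured in live-treated cells via 6-hexadecanoylamino-4-methylumbelliferyl-β-galactoside hydrolysis (0.1 mM final, pH 5.2) with fluorescent detection.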

Chain of UniProt P54803 (P54803 whole entry, looked up): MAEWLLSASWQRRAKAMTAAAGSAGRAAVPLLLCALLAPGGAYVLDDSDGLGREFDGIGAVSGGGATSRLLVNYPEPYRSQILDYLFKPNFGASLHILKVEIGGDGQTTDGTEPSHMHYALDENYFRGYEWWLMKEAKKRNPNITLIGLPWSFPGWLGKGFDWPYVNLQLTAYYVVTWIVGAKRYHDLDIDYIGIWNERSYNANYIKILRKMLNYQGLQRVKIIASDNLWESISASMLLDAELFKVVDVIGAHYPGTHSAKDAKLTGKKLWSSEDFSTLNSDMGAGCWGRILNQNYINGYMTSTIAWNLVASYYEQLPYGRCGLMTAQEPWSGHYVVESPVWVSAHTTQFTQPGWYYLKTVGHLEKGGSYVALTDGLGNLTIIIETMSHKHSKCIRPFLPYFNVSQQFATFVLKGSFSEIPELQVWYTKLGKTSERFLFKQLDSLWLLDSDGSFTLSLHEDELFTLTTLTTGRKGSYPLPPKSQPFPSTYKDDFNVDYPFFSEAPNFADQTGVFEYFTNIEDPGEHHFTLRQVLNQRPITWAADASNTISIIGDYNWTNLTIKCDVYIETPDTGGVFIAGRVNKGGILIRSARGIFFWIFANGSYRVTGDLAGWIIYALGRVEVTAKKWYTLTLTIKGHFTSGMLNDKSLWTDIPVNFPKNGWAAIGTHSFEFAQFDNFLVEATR

activation, inactive:
CCOc1ccccc1NC(=O)C(=O)NCCc1sc(-c2cccc(F)c2)nc1C -4.03%
COc1ccc(-c2cc(C(F)(F)F)nc(S(=O)(=O)CCCC(=O)Nc3cccc(O)c3)n2)cc1OC -13.9%
CCC(=O)Oc1ccc(/C=C(\C#N)c2nc3ccccc3[nH]2)cc1OC -0.953%
CCCC(=O)N1CCN(c2nc3c(OC)ccc(C)c3s2)CC1 -9.35%
CC(C)(C)OC(=O)N1CCC(c2c(C(=O)N3CCN(C(=O)c4ccco4)CC3)cnn2-c2cccc(F)c2)CC1 8.58%
CCOc1ccc(-n2c(SCC(=O)N3CCOCC3)nc3c([nH]c4ccccc43)c2=O)cc1 -4.69%
COc1ccc2c(c1OC)C(=O)O[C@@H]2[C@H]1c2c(cc3c(c2OC)OCO3)CCN1C -10.7%
COc1cc(C(=O)Nc2ccc3nc(SCc4ccc(C)cc4)sc3c2)cc(OC)c1OC -22.8%
Cc1ccc(Cl)cc1-n1ncc2c(NC3CCCCCC3)ncnc21 -6.63%
Cc1ccc(-n2nc(C(=O)N3CCC(C)CC3)c(=O)n(C)c2=O)cc1 -17.7%
Cc1ccc(C)c(Nc2nnc(-n3nc(C)cc3C)c3ccccc23)c1 -28.2%
O=C(Nc1cccc(F)c1)c1ccc2snnc2c1 -19%
CCN(c1ccccc1)S(=O)(=O)c1nnc(NC(=O)c2cccs2)s1 -6.43%
Cc1nc(N2CCOCC2)c2c(C(=O)Nc3cccc(C(F)(F)F)c3)c(C)oc2n1 -6.32%
Cc1ccc(S(=O)(=O)NCCS(=O)(=O)N2CCN(c3ccccc3)CC2)cc1 -21.9%
COc1ccc(CNC(=O)C2CCN(Cc3nc(-c4ccc(Cl)cc4)oc3C)CC2)cc1 4.91%
Cc1ccc(Cc2nc3ccccc3nc2SCC(=O)Nc2ccc3c(c2)OCO3)cc1 6.31%
O=C(NC1CC(=O)N(c2cccc(F)c2)C1)c1ccc(Br)o1 (configuration not stated) 7.06%
CSc1ccc(CCNC(=O)CCc2c(C)nc3c(c(C)nn3-c3ccccc3)c2C)cc1 -10.7%
Cc1ccc(CNC(=O)C(CC(C)C)NS(=O)(=O)c2ccc3c(c2)oc(=O)n3C)cc1 (configuration not stated) -9.89%
O=C(O)c1cc(-n2c(/C=C\c3ccc(F)cc3)nc3ccccc3c2=O)ccc1Cl 2.58%
O=C(NCc1ccc(Cl)cc1)c1cnc(N2CCCCC2)c2ccccc12 -2.29%
Cc1cccc(N2CCN(CCNC(=O)C3COc4ccccc4C3)CC2)c1C (configuration not stated) -8.4%
Cc1c(S(=O)(=O)c2cccc(Cl)c2)nnn1-c1cccc(C(F)(F)F)c1 -27.5%
CC(=O)c1ccc(NC(=O)CCSc2nc(-c3ccco3)cc(C(F)(F)F)n2)cc1 -16.5%
COc1ccc(OC)c(NC(=O)c2noc3c2CCCC3)c1 -2.12%
CCOC(=O)Cc1ccc(NC(=O)N2CCOc3ccc(C)cc32)cc1 -17.7%
COC(=O)c1c(-c2ccc(Cl)cc2)noc1N1CCN(c2ccc(C)cc2C)CC1 -12.3%
CC(C)c1ccc(NC(=O)C2CCCN(S(=O)(=O)c3cccc4cccnc34)C2)cc1 (configuration not stated) -11.5%
CCCCN(C)CCCNC(=O)C1CCN(c2nc3ccc(CC)cc3s2)CC1 -16.8%
CCc1nnc2c3ccccc3nc(Nc3ccc(C(C)=O)cc3)n12 -7.15%
CCOC(=O)Cn1c(=O)oc2cc(S(=O)(=O)N3CCN(c4cccc(C)c4C)CC3)ccc21 -7.15%
Cc1ccc2nc(N(Cc3cccnc3)C(=O)COc3ccccc3)sc2c1 -16%
Cc1ccc(OC(C)C(=O)Nc2nonc2-c2ccc(Br)cc2)cc1C (configuration not stated) -18.1%
CCOC(=O)c1cc(S(=O)(=O)N2CCN(c3ccccc3)CC2)[nH]n1 1.25%
CC(C)OCCCNC(=O)c1ccc2c(c1)N(Cc1c(F)cccc1Cl)C(=O)c1ccccc1S2 -7.55%
COc1ccc(-c2nn3c(=O)cc(CN4CCN(C(=O)c5ccc(C(C)(C)C)cc5)CC4)nc3s2)cc1 -5.29%
CCOC(=O)CC(NS(=O)(=O)c1ccc2[nH]c3c(c2c1)CCCC3)c1ccccc1Cl (configuration not stated) -13.8%
COc1ccc(C(=O)NCC(c2cccnc2)N2CCc3ccccc32)cc1 (configuration not stated) -41.1%
Cc1ccc(Oc2c(C(F)(F)F)oc3c(CN4CCCCC4C)c(O)ccc3c2=O)cc1 (configuration not stated) -12%
Cc1ccc(Nc2c(-c3c[nH]c4ccccc34)nc3cc(C)ccn23)cc1 -4.86%
COc1cc(OC)c(OC)cc1/C=C/c1nc2cc3ccccc3cc2c(=O)n1-c1ccc(Cl)cc1 -17.9%
CCOc1ccccc1NC(=O)CSc1nc2c(oc3ccccc32)c(=O)n1-c1ccc(C)c(C)c1 -12.9%
CCOC(=O)C1=C(CS(=O)(=O)c2cccc(C(F)(F)F)c2)NC(=O)NC1c1cccc(OC)c1 (configuration not stated) -1.94%
CCC(C(=O)Nc1cc(Cl)ccc1OC)n1nc(-c2ccccc2)ccc1=O (configuration not stated) 0.744%
Cc1cccc(NC(=O)c2oc3ccccc3c2NC(=O)Cc2coc3c(C)c(C)ccc23)c1 -15.5%
O=C(CCC1N=C2c3ccccc3N=C(SCc3ccc(F)cc3)N2C1=O)NCc1cccs1 (configuration not stated) -20.1%
CC1=C(c2ccc(C)c(C)c2)S(=O)(=O)N(Cc2ccc(C(=O)NCc3cccc(C)c3)cc2)C1=O -10.4%
Cc1c(Cl)cccc1NC(=O)CN1C(=O)CCn2nc(-c3cccn3C)cc21 -7.13%
CCOC(=O)C(Cc1c[nH]c2ccccc12)NC(=O)COc1ccc(Cl)cc1 (configuration not stated) -27.1%
O=C(NCc1ccc2c(c1)CCN2C(=O)c1ccncc1)c1ccc(Cl)cc1 -0.736%
COc1cccc(-c2nnc3n(Cc4ccccc4Cl)c(=O)c4ccccc4n23)c1O -15.5%
O=C(c1ccccc1)C(O)c1ccccc1 (configuration not stated) -9.94%
CC(C)Oc1ccc(CNC(=O)CCCn2c(=O)c3cccn3c3cccnc32)cc1 7.6%
Cc1ccc2c(=O)c(C(=O)c3ccccc3)cn(CC(=O)Nc3ccccc3)c2n1 -13.6%
O=C(NCCCN1CCCCC1)c1cc(Sc2ccc(Cl)cc2)nc2ccccc12 -3.88%
CCn1c(NCc2cccc(Cl)c2)nc2ccccc21 -16.9%
COc1cccc(C(=O)NC2=NC(c3ccc(N(C)C)cc3)CC(=O)N2)c1 (configuration not stated) -7.51%
O=C(CSc1nc(-c2ccccc2)cn1-c1ccccc1)Nc1ccccc1 -6.89%
COc1cc(-c2nc3ccc(C)cn3c2Nc2ccc(Cl)cc2)ccc1O 15.2%
COc1ccc(-n2c(=O)c3ccc(C(=O)NCc4ccc(C)cc4)cc3n(CC(=O)Nc3ccc(C)cc3)c2=O)cc1 -11.9%
Cc1cc(C)c(C(=O)Nc2ccccc2)c(SCC(=O)Nc2ccc(Br)cc2C)n1 -11.9%
Cc1ccc(Cn2c(C(=O)O)c(CNCCc3ccco3)c3ccc(C)cc32)cc1 3.63%
Cc1c[nH]c2ccccc12 -6.72%
COc1ccccc1NC(=O)CCn1c(=O)oc2cc(Cl)ccc21 -16.3%
COc1ccc(Cl)cc1NC(=O)c1nn(C)c2c1CS(=O)(=O)c1ccccc1-2 -13.2%
COCCCNC(=O)C1CCN(c2cc(C)nc3c(-c4ccc(OC)c(OC)c4)c(C)nn23)CC1 -14.3%
CCOc1cc(-c2nc(-c3ccc(-c4ccc(OC)cc4)nc3OC)no2)cc(OCC)c1OCC -15.5%
COc1ccc(-n2cc(C(=O)NCc3cccc(OC)c3)c3ccccc3c2=O)cc1 7.87%
COc1ccc(-c2cc(C(=O)NCCc3ccccc3)c3cc(C(C)C)ccc3n2)cc1 -18.6%
O=S(=O)(c1ccc(Br)cc1)c1nnn2c1nc(NCc1cccs1)c1sccc12 -4.09%
CC(=O)c1ccc(N2CCN(C3C(=O)c4ccccc4N3C(C)=O)CC2)cc1 (configuration not stated) 1.04%
Cc1nc2nc(NC(=O)c3ccc(Cl)cc3)[nH]n2c(=O)c1Cc1ccccc1 -13.8%
CCc1ccc(NC(=O)CSc2nc(=O)n(Cc3ccco3)c3c2CCC3)cc1 -11.1%
CC1=C(C(=O)Nc2ccccc2C)C(c2ccccn2)n2nc(SCc3ccccc3F)nc2N1 (configuration not stated) -19.4%
O=C(CSc1nc(=O)n(Cc2ccco2)c2c1CCC2)NCc1ccc(F)cc1 -7.72%
COc1ccc2nc(NC(=O)c3ccc(S(=O)(=O)N4CCCC(C)C4)cc3)sc2c1 (configuration not stated) -19.9%
O=C(NC1CC(=O)N(c2ccc(Cl)cc2)C1)c1cccs1 (configuration not stated) 0.576%
CC(NC(=O)Cn1c(-c2cccs2)cc2cc(F)ccc21)c1ccccc1 (configuration not stated) -3.33%
O=c1[nH]c(SCc2ccc(Br)cc2)nc2c1CCCC2 -13%
Cc1ccc(S(=O)(=O)c2nnn3c2nc(N2CCN(c4ccccc4F)CC2)c2ccccc23)cc1C 7.78%
Cc1ccc(C(=O)NC2(C(F)(F)F)C(=O)Nc3c2c(=O)[nH]c(=O)n3CCc2ccccc2)cc1 (configuration not stated) -6.28%
CCOC(=O)c1cc(-c2ccccc2)n(CCCC(=O)Nc2ccc(C)cc2C)c1C -13.4%
Cc1cccn2c(=O)c3cc(C(=O)NCc4ccccc4Cl)sc3nc12 -9.42%
COc1ccc(-c2cc(C(=O)Oc3ccc(C)c(C)c3)c3ccccc3n2)cc1 -6.02%
O=C(Cn1c(=O)n(Cc2ccc3c(c2)OCO3)c(=O)c2ccc(C(=O)NC3CCCCC3)cc21)Nc1ccccc1F -34.4%
CCC(C)NC(=O)c1c(-c2ccccc2)c(-c2ccccc2)nn(C)c1=O (configuration not stated) -13.7%
CCOc1ccc(-n2c(SCC(=O)N3CCCCC3)nc3c([nH]c4ccccc43)c2=O)cc1 -22.5%
CC(C)(C)C(=O)N1CCN(c2nc3c(F)cccc3s2)CC1 -20.3%
Cc1cccc(-n2c3nc(=O)n(C)c(=O)c-3cc3ccc(Cl)cc32)c1C -5.57%
Cc1noc2ncnc(NCc3cccc(Cl)c3)c12 -39.2%
Cc1c(C(=O)N2CCC(C(=O)Nc3ccc(F)cc3)CC2)sc2nc[nH]c(=O)c12 -10.9%
CS(=O)(=O)N1CCc2cc(C(=O)NCc3ccccc3)ccc21 -11.7%
Oc1cccc(Nc2ncnc3sc4c(c23)CCCC4)c1 -10.2%
Cc1cccc(CN2C(=O)c3ccccc3S(=O)(=O)c3ccc(C(=O)N4CCN(c5cc(C)ccc5C)CC4)cc32)c1 -13.3%
COc1cccc(C(=O)n2nc(-c3ccco3)nc2NCc2cccs2)c1 -10.9%
CCc1ccc(-c2cc3c(N4CCN(c5ccccc5)CC4)nccn3n2)cc1 0.733%
